Measurements reported in patent publication US20150087809A1.
Where two headings read alike, the source gives them in different places.

B1: SEQ ID NO 124 (peptide)
peptide: KLLPRLPGV
modifications: not checked
B2: SEQ ID NO 131 (peptide)
peptide: AILSPGALV
modifications: not checked
B3: SEQ ID NO 133 (peptide)
peptide: DVWDWICTV
modifications: not checked
B4: SEQ ID NO 135 (peptide)
peptide: RALAHGVRV
modifications: not checked
B5: SEQ ID NO 136 (peptide)
peptide: LSDGSWSTV
modifications: not checked
B6: SEQ ID NO 141 (peptide)
peptide: YSPGEINRV
modifications: not checked
B7: SEQ ID NO 142 (peptide)
peptide: YTNVDQDLV
modifications: not checked
B8: SEQ ID NO 146 (peptide)
peptide: CMSADLEVV
modifications: not checked
B9: SEQ ID NO 150 (peptide)
peptide: KQAEAAAPV
modifications: not checked
B10: SEQ ID NO 152 (peptide)
peptide: VLDDHYRDV
modifications: not checked
B11: SEQ ID NO 162 (peptide)
peptide: VILDSFEPL
modifications: not checked
B12: SEQ ID NO 170 (peptide)
peptide: VLADFKTWL
modifications: not checked
B13: SEQ ID NO 179 (peptide)
peptide: WLRDVWDWI
modifications: not checked

Molecular target: HLA-A2 type molecule (product of the HLA-A*0201 gene) (human)
Test: flow cytometry; reassociation on acid-stripped JY cells with added b2m, mAb BB7.2
[1] = remark: other sources report otherwise

| Binder | -log Kd | -log Kd [1] |
| --- | --- | --- |
| B1 | 6.71 -log Kd (M) | – |
| B2 | – | 6.24 -log Kd (M) |
| B3 | 4.98 -log Kd (M) | – |
| B4 | – | 5.28 -log Kd (M) |
| B5 | 6.22 -log Kd (M) | – |
| B6 | 6.05 -log Kd (M) | – |
| B7 | 5.68 -log Kd (M) | – |
| B8 | – | 4.81 -log Kd (M) |
| B9 | 5.42 -log Kd (M) | – |
| B10 | 6.51 -log Kd (M) | – |
| B11 | 5.39 -log Kd (M) | – |
| B12 | 6.02 -log Kd (M) | – |
| B13 | 5.68 -log Kd (M) | – |
